# Data from the supplement of paper PMC8728848.
# The other results are listed elsewhere or left out.
# Tests used:
# Assay in all cases: glycan array binding signal (z-score within array); higher = stronger binding
# Settings in all cases: glycan notation: IUPAC condensed, linker removed
# [1] = target: Man(a1-3)[Man(a1-6)]Man(b1-4)GlcNAc(b1-4)GlcNAc
# Method in brief: (§1)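 From the Consortium for Functional Glycomics database, 3228 arrays were curated, keeping only those whose protein sequence was available. Binding is given as a within-array Z-score averaged across arrays sharing a protein sequence and across linkers. Negative Z-scores can be read as non-binding.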
# Man(b1-4)GlcNAc = target: Man(b1-4)GlcNAc
# Method in brief: as §1
# Neu5Ac(a2-3)Gal = target: Neu5Ac(a2-3)Gal
# Method in brief: as §1
# [2] = target: Neu5Ac(a2-3)Gal(b1-3)GalNAc
# Method in brief: as §1
# [3] = target: Neu5Ac(a2-3)Gal(b1-3)GalNAc(b1-3)Gal(a1-4)Gal(b1-4)Glc
# Method in brief: as §1
# [4] = target: Neu5Ac(a2-3)Gal(b1-3)GalNAc(b1-4)[Neu5Ac(a2-3)]Gal(b1-4)Glc
# Method in brief: as §1
# [5] = target: Neu5Ac(a2-3)Gal(b1-3)GalNAc6S
# Method in brief: as §1
# [6] = target: Neu5Ac(a2-3)Gal(b1-3)GlcNAc
# Method in brief: as §1
# [7] = target: Neu5Ac(a2-3)Gal(b1-3)GlcNAc(b1-3)Gal(b1-4)GlcNAc
# Method in brief: as §1
# [8] = target: Neu5Ac(a2-3)Gal(b1-3)GlcNAc6S
# Method in brief: as §1
# [9] = target: Neu5Ac(a2-3)Gal(b1-3)[Fuc(a1-4)]GlcNAc
# Method in brief: as §1
# [10] = target: Neu5Ac(a2-3)Gal(b1-3)[Fuc(a1-4)]GlcNAc(b1-3)Gal(b1-4)[Fuc(a1-3)]GlcNAc
# Method in brief: as §1
# [11] = target: Neu5Ac(a2-3)Gal(b1-3)[Neu5Ac(a2-3)Gal(b1-4)]GlcNAc
# Method in brief: as §1
# [12] = target: Neu5Ac(a2-3)Gal(b1-3)[Neu5Ac(a2-6)]GalNAc
# Method in brief: as §1
# Neu5Ac(a2-3)Gal(b1-4)Glc = target: Neu5Ac(a2-3)Gal(b1-4)Glc
# Method in brief: as §1
# [13] = target: Neu5Ac(a2-3)Gal(b1-4)GlcNAc
# Method in brief: as §1
# [14] = target: Neu5Ac(a2-3)Gal(b1-4)GlcNAc(b1-3)Gal(b1-4)GlcNAc
# Method in brief: as §1
# [15] = target: Neu5Ac(a2-3)Gal(b1-4)GlcNAc(b1-3)Gal(b1-4)GlcNAc(b1-3)Gal(b1-4)GlcNAc
# Method in brief: as §1
# [16] = target: Neu5Ac(a2-3)Gal(b1-4)GlcNAc(b1-3)Gal(b1-4)[Fuc(a1-3)]GlcNAc
# Method in brief: as §1
# [17] = target: Neu5Ac(a2-3)Gal(b1-4)GlcNAc6S
# Method in brief: as §1
# [18] = target: Neu5Ac(a2-3)Gal(b1-4)[Fuc(a1-3)]GlcNAc
# Method in brief: as §1
# [19] = target: Neu5Ac(a2-3)Gal(b1-4)[Fuc(a1-3)]GlcNAc(b1-3)Gal
# Method in brief: as §1
# [20] = target: Neu5Ac(a2-3)Gal(b1-4)[Fuc(a1-3)]GlcNAc(b1-3)Gal(b1-4)GlcNAc
# Method in brief: as §1
# [21] = target: Neu5Ac(a2-3)Gal(b1-4)[Fuc(a1-3)]GlcNAc(b1-3)Gal(b1-4)[Fuc(a1-3)]GlcNAc(b1-3)Gal(b1-4)[Fuc(a1-3)]GlcNAc
# Method in brief: as §1
# [22] = target: Neu5Ac(a2-3)Gal(b1-4)[Fuc(a1-3)]GlcNAc6S
# Method in brief: as §1
# [23] = target: Neu5Ac(a2-3)Gal6S(b1-4)GlcNAc
# Method in brief: as §1
# [24] = target: Neu5Ac(a2-3)Gal6S(b1-4)[Fuc(a1-3)]GlcNAc
# Method in brief: as §1
# Neu5Ac(a2-3)GalNAc = target: Neu5Ac(a2-3)GalNAc
# Method in brief: as §1
# [25] = target: Neu5Ac(a2-3)GalNAc(b1-4)GlcNAc
# Method in brief: as §1
# [26] = target: Neu5Ac(a2-3)[GalNAc(b1-4)]Gal(b1-4)Glc
# Method in brief: as §1
# [27] = target: Neu5Ac(a2-3)[GalNAc(b1-4)]Gal(b1-4)GlcNAc
# Method in brief: as §1
# [28] = target: Neu5Ac(a2-3)[Neu5Ac(a2-6)]GalNAc
# Method in brief: as §1
# [29] = target: Neu5Ac(a2-6)Gal(b1-4)GlcNAc
# Method in brief: as §1
# [30] = target: Neu5Ac(a2-6)Gal(b1-4)GlcNAc(b1-2)Man(a1-3)[Neu5Ac(a2-6)Gal(b1-4)GlcNAc(b1-2)Man(a1-6)]Man(b1-4)GlcNAc(b1-4)GlcNAc
# Method in brief: as §1
# [31] = target: Neu5Ac(a2-6)Gal(b1-4)GlcNAc(b1-3)Gal(b1-4)GlcNAc
# Method in brief: as §1
# [32] = target: Neu5Ac(a2-6)Gal(b1-4)GlcNAc(b1-3)Gal(b1-4)[Fuc(a1-3)]GlcNAc(b1-3)Gal(b1-4)[Fuc(a1-3)]GlcNAc
# Method in brief: as §1
# [33] = target: Neu5Ac(a2-6)Gal(b1-4)GlcNAc6S
# Method in brief: as §1
# Neu5Ac(a2-6)GalNAc = target: Neu5Ac(a2-6)GalNAc
# Method in brief: as §1
# [34] = target: Neu5Ac(a2-6)GalNAc(b1-4)GlcNAc
# Method in brief: as §1
# Neu5Ac(a2-8)Neu5Ac = target: Neu5Ac(a2-8)Neu5Ac
# Method in brief: as §1
# [35] = target: Neu5Ac(a2-8)Neu5Ac(a2-3)Gal(b1-4)Glc
# Method in brief: as §1
# [36] = target: Neu5Ac(a2-8)Neu5Ac(a2-3)[GalNAc(b1-4)]Gal(b1-4)Glc
# Method in brief: as §1
# [37] = target: Neu5Ac(a2-8)Neu5Ac(a2-8)Neu5Ac
# Method in brief: as §1
# [38] = target: Neu5Ac(a2-8)Neu5Ac(a2-8)Neu5Ac(a2-3)Gal(b1-4)Glc
# Method in brief: as §1
# [39] = target: Neu5Ac(a2-8)Neu5Ac(a2-8)Neu5Ac(a2-3)[GalNAc(b1-4)]Gal(b1-4)Glc
# Method in brief: as §1
binder,measurement,setting,value
CVNH3T (Magnaporthe grisea) (protein) GSHIGPYGNYAGNFSGSSRDICLDGARLRAECRRGDGGYSTSVIDLNRYLSNDNGHFRWVSGGGGGGGTATVTVQQGDTLRDIGRRFDCDFHEIARRNNIQNEDLIYPGQVLQVPTKGGSGGGAGNFWDSARDVRLVDGGKVLEAELRYSGGWNRSRIYLDEHIGNRNGELIHC,glycan array binding signal (z-score),[1],-0.173
same,glycan array binding signal (z-score),Man(b1-4)GlcNAc,-0.199
same,glycan array binding signal (z-score),Neu5Ac(a2-3)Gal,-0.231
same,glycan array binding signal (z-score),[2],-0.243
same,glycan array binding signal (z-score),[3],6.23
same,glycan array binding signal (z-score),[4],-0.185
same,glycan array binding signal (z-score),[5],-0.23
same,glycan array binding signal (z-score),[6],-0.152
same,glycan array binding signal (z-score),[7],-0.24
same,glycan array binding signal (z-score),[8],-0.233
same,glycan array binding signal (z-score),[9],-0.241
same,glycan array binding signal (z-score),[10],0.849
same,glycan array binding signal (z-score),[11],-0.242
same,glycan array binding signal (z-score),[12],-0.191
same,glycan array binding signal (z-score),Neu5Ac(a2-3)Gal(b1-4)Glc,-0.195
same,glycan array binding signal (z-score),[13],-0.144
same,glycan array binding signal (z-score),[14],-0.23
same,glycan array binding signal (z-score),[15],-0.24
same,glycan array binding signal (z-score),[16],-0.236
same,glycan array binding signal (z-score),[17],-0.224
same,glycan array binding signal (z-score),[18],-0.232
same,glycan array binding signal (z-score),[19],-0.217
same,glycan array binding signal (z-score),[20],-0.202
same,glycan array binding signal (z-score),[21],-0.233
same,glycan array binding signal (z-score),[22],-0.23
same,glycan array binding signal (z-score),[23],-0.23
same,glycan array binding signal (z-score),[24],-0.226
same,glycan array binding signal (z-score),Neu5Ac(a2-3)GalNAc,-0.225
same,glycan array binding signal (z-score),[25],-0.208
same,glycan array binding signal (z-score),[26],-0.234
same,glycan array binding signal (z-score),[27],-0.215
same,glycan array binding signal (z-score),[28],-0.233
same,glycan array binding signal (z-score),[29],-0.171
same,glycan array binding signal (z-score),[30],-0.213
same,glycan array binding signal (z-score),[31],-0.222
same,glycan array binding signal (z-score),[32],-0.232
same,glycan array binding signal (z-score),[33],-0.228
same,glycan array binding signal (z-score),Neu5Ac(a2-6)GalNAc,-0.209
same,glycan array binding signal (z-score),[34],-0.227
same,glycan array binding signal (z-score),Neu5Ac(a2-8)Neu5Ac,-0.235
same,glycan array binding signal (z-score),[35],-0.23
same,glycan array binding signal (z-score),[36],-0.237
same,glycan array binding signal (z-score),[37],-0.237
same,glycan array binding signal (z-score),[38],-0.237
same,glycan array binding signal (z-score),[39],0.944
